# About 540 (0.36%) of roughly 150,000 compounds showed an effect of 50% or more. This is one part of the list.
# Test system: Plasmodium falciparum
# Experiment: Primary screen in NF54 nanoGlo assay, in single point, at 2uM, 72h; a lower Z score goes with more inhibition
# Type: functional, Erythrocyte
# Conditions: timepoint 72 hour
SMILES,% Inhibition [%],Z score
C=CCNC(=O)[C@@H](NC(=O)c1ccc(OC)cc1)C1CCN(C(=O)COC)CC1,-4,0.52
O=S1(=O)CC[C@H](N(Cc2cc(Cl)c3c(c2)OCCO3)C2CC2)C1,-3,0.27
CN(c1ccccc1NC(=O)N(C[C@H]1CCOC1)C1CC1)C1CCCC1,-18,2.1
CCc1ncnc(N2CCC[C@H](CNC(=O)Cc3ccc(OC)cc3)C2)c1F,-1,0.2
Cc1nc(CC(C)C)nc(N2CCN(C(=O)c3cccs3)CC2)c1Cc1ccc(Cl)cc1Cl,-14,1.75
Cc1ccsc1CCNC(=O)C[C@H]1CNCCO1,0,-0.04
C[C@@H](c1nnc2n1CCCCC2)n1cc(N)cn1,28,-3.21
CC(=O)N1CCCN(C2CN(Cc3cccc(C)c3)CC2C)CC1 (stereo unspecified),-1,0.07
Cc1csc(NC(=O)C2CCN(c3cc(-n4cncn4)ncn3)CC2)n1,11,-1.45
CCNC(=O)C(C)(C)CN[C@H]1CC(C)(C)OC1(C)C,3,-0.59
CCN(CCOC)c1cc(C(N)=O)nc(N(CC)CCOC)n1,-2,0.49
CN(CC1CCCC1O)C(=O)NCc1cnc(-c2ccccc2)s1 (stereo unspecified),-3,0.44
Cc1nc(O)c(Cl)c(NCC[C@H]2CCCN(C)C2)n1,-10,1.94
COCCN1CCN(c2ccc(C#N)nc2)CC1=O,-9,1.6
O=C(NCCOc1cccc(F)c1)NCC(F)F,-7,1.09
O=C(NC1CCCCC1)c1cc2n(n1)CCN(Cc1c(Cl)cccc1Cl)C2=O,-12,1.53
O=C1CC2(CCN(C(=O)C3CC34CCOc3ccccc34)C2)CN1 (stereo unspecified),-3,0.53
COc1cccc(-n2ccn3cc(-c4ccc5c(c4)OCO5)nc3c2=O)c1,8,-1.02
O=C(CN(Cc1ccccc1)C(=O)c1ccccc1Cl)N1CCN(c2ccc(-c3ccc(Cl)cc3Cl)nn2)CC1,-13,1.76
CCCCCc1nnc(NC(=O)Cc2c[nH]c3ccccc23)s1,3,-0.41
COc1ccc(-c2cc(C(=O)Nc3c(C)n(C)n(-c4ccccc4)c3=O)no2)cc1OC,1,-0.14

SMILES,% Inhibition [%],Z score
C[C@H](NC(=O)NCCC1CCCC1)c1nccs1,-2,0.24
CC(C)(O)C(=O)N1CCC[C@H](NC(=O)c2ccc3ccccc3c2)C1,-1,0.1
COC1CCN(CCNC(c2ccccc2F)C2CC3CCC2C3)CC1 (stereo unspecified),-12,1.59
Cc1ccc(OCCNC(=O)c2ccc(CN3CCOCC3)cc2)c(C)c1,8,-1.06
C#CCN(C)C(=O)c1ccc(N(C)C)nc1,1,-0.21
O=C1c2ccccc2CS(=O)(=O)N1Cc1ccccc1,-1,0.13
O=C(NC(Cc1ccccn1)[C@H]1C[C@@H](O)C1)c1ccn2cnnc2c1 (stereo partly specified),3,-0.42
Cc1noc2nc(-c3c[nH]cn3)c(-c3ccccc3)cc12,0,0.06
Cn1ncc(N2CC[C@H](CNC(=O)c3cccc(-c4ncc[nH]4)c3)C2)cc1=O,2,-0.3
Cc1cccc([C@H]2C[C@@H]2C(=O)NCC(C(=O)O)c2ccc(F)cc2)c1 (stereo partly specified),-9,1.17
CCCc1ccc(CN2C[C@H](NC(=O)CO)[C@@H](C3CC3)C2)o1,-18,3.13
CN(C)c1ncc(CN2CCO[C@H](c3ccc(Cl)cc3)C2)cn1,1,-0.08
COC[C@@H](c1cccc(C(F)(F)F)c1)N(C)CC(=O)O,-5,0.73
CC(C)C(C)(C#N)NC(=O)CN1CCC2CCN(C)CC21 (stereo unspecified),-14,2.04
COc1cccc(-c2ccc(N3CCC(NCc4ccncn4)CC3)cc2)c1,-7,1.29
COCCN1C(=O)C[C@](CC(=O)N(C)Cc2ccc(F)cc2)(c2ccccc2OC)C1=O,10,-1.25
Cc1nc[nH]c1-c1nccn1Cc1cc2ccccc2[nH]1,-7,1.34
O=C(NCc1nc(C2CC2)no1)c1ccccc1OCc1ccccc1,-11,1.65
CC(C)[C@@H]1CCCN1CCN1C(=O)NC(C)(C)C1=O,4,-0.56
COc1ccc(CC(=O)N2CCN(c3cc(-n4cccn4)ncn3)CC2)cc1,5,-0.79
Cc1nc(C(=O)NC[C@H](C)CN2CCCC2)c(Br)s1,0,0.05

SMILES,% Inhibition [%],Z score
CC1(CC(F)(F)F)CN(C(=O)c2cncnc2N)C1,-2,0.27
CC(NC(=O)C1COCCO1)c1nc2cc(Cl)ccc2[nH]1 (stereo unspecified),-2,0.31
CC(=O)N1CCc2cc(S(=O)(=O)[C@@H](C)CC(=O)NCCc3ccc(Cl)cc3)ccc21,-1,0.09
CC(=O)N(C)c1nc(CS(=O)(=O)c2ccc(Cl)cc2)cs1,-17,2.27
CCn1nc(C)c(CCN(C)c2ccc(C(=O)O)cc2NS(=O)(=O)c2ccc(C)c(C)c2)c1C,8,-1.3
Cc1nn(C)c(C)c1S(=O)(=O)N1CCC[C@H]1c1noc(COCc2ccccc2)n1,0,0.06
COc1cccc(Oc2nc(N3CCN(C)CC3)nc3c2CN(Cc2ccc(O)c(OC)c2)CC3)c1,-11,1.24
COc1ccnc(NC(=O)C#Cc2ccccc2)c1,1,-0.11
O=C(Cc1c(F)cccc1Cl)N[C@@H]1C[C@H]2C(=O)NCC(=O)N2C1,1,-0.18
O=S(=O)(N1CCC2(CCCO2)CC1)N1CCc2ccccc2C1,3,-0.56
Cc1[nH]ccc1C(=O)N[C@@H](CC(C)(C)C)c1cccnc1,-7,1.43
CC(C)Cc1ccc(C(=O)NCC2(O)CCS(=O)(=O)CC2)s1,-9,0.94
C[C@@H]1OCCO[C@@H]1C(=O)Nc1cc(C2CC2)nn1-c1ccccc1,11,-1.45
Cc1ccccc1Cn1ccnc1CN(C(=O)c1cccs1)C1CCCCC1,-7,0.66
CCCS(=O)(=O)N1CC(Oc2ccc(-c3noc(-c4ccncc4)n3)cc2)C1,-27,5.01
CC(C)Oc1ccc(NC(=O)NC[C@@H]2C[C@H](c3ccccc3)CO2)nn1,-5,0.52
CC(C)Cc1nc(CN(C)C(=O)c2nn(C)c3c2CCCC3)no1,-1,0.14
O=C(N[C@H]1CCOC[C@@H]1Oc1ccc(CO)cc1)c1n[nH]c2ccccc12,-5,0.96
CCn1c(-c2ncccn2)nnc1N1CCN(S(C)(=O)=O)CC1,-4,0.69
O=C(c1ccoc1)N1CCC[C@H](C(=O)N2CCN(C(c3ccccc3)c3ccccc3)CC2)C1,37,-4.92
CCOc1ccc(C(=O)Nc2ccnn2[C@@H](C)C(C)C)o1,3,-0.45

SMILES,% Inhibition [%],Z score
CC(=O)c1cccc(CN2CCC[C@H](N(C)CCc3ccccn3)C2)c1,-2,0.22
CCCS(=O)(=O)NCCCn1c(-c2ccc(C)cc2)nc2cccnc21,-17,2.28
N#Cc1cccc(C(=O)N[C@H]2[C@H](O)[C@H](O)C[C@@H]2c2cccnc2)c1,14,-1.69
CC(=O)Oc1ccccc1N(C(C)=O)C(C)=O,-5,0.8
CC[C@@H]1CN(C(=O)C2CCS(=O)(=O)CC2)CC[C@]1(C)O,3,-0.54
CN(CCn1cccn1)[C@H]1CCc2ccccc2NC1=O,-10,1.4
COCCN1C(=O)c2ccc(C(=O)Nc3nc4ccccc4[nH]3)cc2C1=O,-17,1.54
Cc1nc(C)c(C(=O)N(C)Cc2csc(-c3ccccc3)n2)s1,-12,1.48
Cc1nc2c(c(=O)n1CC(=O)N1CCc3ccccc3C1)CCN(Cc1ccccc1)C2,27,-3.1
C[C@@H](Cc1cn(Cc2ccc3c(c2)OCO3)nn1)c1ccccc1,-2,0.29
CC[C@H](C)N1CCN(C(=O)C(=O)c2cnn(-c3ccccc3)c2)CC1,-4,0.62
CC(C)Oc1ccc(C(=O)N[C@@H](C)c2cc[nH]n2)c(Cl)c1,-3,0.42
COc1ccc2c(C)c(C(=O)N(C)CCCOc3cccc(C)c3)oc2c1,-15,2.96
Cc1cccc2cc(C(=O)NC[C@H](O)CN3CCCCCC3)n(C)c12,-16,2.75
O=C1NCCN1CC1CCN(C(=O)c2ncc3c(F)cccn23)CC1,0,-0.04
Cn1c(CNc2ccn(CCc3ccncc3)n2)nc2ccccc21,2,-0.38
Cn1cccc1C(=O)C(=O)NCCc1ccc(Cl)cc1,-15,1.41
Cc1ccc(CN2CCc3[nH]nc(-c4c(C)noc4C)c3C2)o1,-1,0.19
Cc1ccc(-c2noc(CN3CCC[C@H]3c3ccc[nH]3)n2)cc1,11,-1.99
COc1cccc(C(=O)N2CCN(C(=O)c3ncc(F)cc3F)CC2)c1,-2,0.32
